Experimental data: paper PMC12677500
Read-outs that look alike come from different tables or passages of the source. These are yes or no findings as the source states them, for the method shown. Binding seen in cells or lysates may run through a third protein. Some results given as binding are weak or reduced against the parent protein; the word gives no strength. For some assays here: Sequences can lack the tags named with a protein.

By UniProt entry, the sequences of proteins in these tests, tags left out.
UniProt Q9UNE7: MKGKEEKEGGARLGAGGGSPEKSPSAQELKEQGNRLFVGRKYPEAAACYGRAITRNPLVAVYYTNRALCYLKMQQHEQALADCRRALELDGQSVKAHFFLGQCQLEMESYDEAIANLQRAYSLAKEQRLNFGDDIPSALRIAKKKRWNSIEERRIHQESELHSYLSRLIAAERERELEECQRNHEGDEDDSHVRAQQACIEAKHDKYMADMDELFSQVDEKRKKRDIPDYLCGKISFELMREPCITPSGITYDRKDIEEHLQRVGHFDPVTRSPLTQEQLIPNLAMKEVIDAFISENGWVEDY
UniProt Q7Z434: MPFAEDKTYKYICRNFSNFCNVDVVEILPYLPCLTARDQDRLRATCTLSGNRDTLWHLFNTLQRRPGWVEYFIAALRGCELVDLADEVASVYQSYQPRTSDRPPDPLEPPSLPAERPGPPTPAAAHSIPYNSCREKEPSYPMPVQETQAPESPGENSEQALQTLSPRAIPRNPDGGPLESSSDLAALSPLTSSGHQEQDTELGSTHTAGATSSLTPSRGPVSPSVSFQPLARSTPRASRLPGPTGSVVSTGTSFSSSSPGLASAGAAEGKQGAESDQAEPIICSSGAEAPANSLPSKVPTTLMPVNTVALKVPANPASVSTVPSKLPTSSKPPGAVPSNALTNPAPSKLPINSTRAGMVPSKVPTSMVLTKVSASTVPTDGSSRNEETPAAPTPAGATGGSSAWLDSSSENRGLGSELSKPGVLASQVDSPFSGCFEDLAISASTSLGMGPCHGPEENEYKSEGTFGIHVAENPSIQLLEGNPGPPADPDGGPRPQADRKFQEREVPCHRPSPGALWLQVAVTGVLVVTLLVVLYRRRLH

Key:
[1] = molecular target: T1, endogenous ARCN1 of HEK293T cells (human (endogenous in HEK293T)) (UniProt P48444); assay: co-IP; HEK293T cells transfected with STUB1-WT-HA or STUB1-mutant-HA for 36 h, MG132 (10 μM) for 12 h; endogenous ARCN1 precipitated with an anti-ARCN1 antibody
T1 sequence: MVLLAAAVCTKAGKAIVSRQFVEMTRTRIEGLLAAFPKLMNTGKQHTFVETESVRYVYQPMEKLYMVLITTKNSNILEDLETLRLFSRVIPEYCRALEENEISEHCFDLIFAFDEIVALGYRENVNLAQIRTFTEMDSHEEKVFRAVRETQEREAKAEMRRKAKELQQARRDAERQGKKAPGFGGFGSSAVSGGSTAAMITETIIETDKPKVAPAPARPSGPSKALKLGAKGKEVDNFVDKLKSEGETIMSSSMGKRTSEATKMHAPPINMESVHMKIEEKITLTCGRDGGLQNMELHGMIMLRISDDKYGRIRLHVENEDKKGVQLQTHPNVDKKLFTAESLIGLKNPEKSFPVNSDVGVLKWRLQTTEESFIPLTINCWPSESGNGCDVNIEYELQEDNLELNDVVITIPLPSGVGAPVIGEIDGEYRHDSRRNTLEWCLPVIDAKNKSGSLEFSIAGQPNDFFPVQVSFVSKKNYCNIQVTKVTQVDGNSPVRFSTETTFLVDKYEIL

[2] = molecular target: T2, ARCN1-MHD-Myc (ARCN1 MHD domain, 271-511 aa) (human) (UniProt P48444); assay: co-IP; HEK293T cells co-transfected with tagged plasmids; NP-40 lysates incubated overnight at 4°C with magnetic beads carrying anti-Flag, anti-Myc or anti-HA antibodies; Fig 4b precipitated with anti-Myc; cells of Fig 9c-d treated with MG132 (10 μM) for 12 h
T2 sequence: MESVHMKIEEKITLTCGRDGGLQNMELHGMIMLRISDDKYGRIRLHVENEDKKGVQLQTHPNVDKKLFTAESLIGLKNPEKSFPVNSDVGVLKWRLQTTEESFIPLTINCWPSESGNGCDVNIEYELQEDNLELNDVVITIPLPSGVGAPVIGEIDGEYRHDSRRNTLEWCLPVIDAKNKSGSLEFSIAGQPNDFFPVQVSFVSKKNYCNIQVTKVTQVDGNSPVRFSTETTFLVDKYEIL

[3] = molecular target: T3, ARCN1-Myc (archain 1, δ subunit of coat protein complex I) (human) (UniProt P48444); assay: as above
T3 sequence: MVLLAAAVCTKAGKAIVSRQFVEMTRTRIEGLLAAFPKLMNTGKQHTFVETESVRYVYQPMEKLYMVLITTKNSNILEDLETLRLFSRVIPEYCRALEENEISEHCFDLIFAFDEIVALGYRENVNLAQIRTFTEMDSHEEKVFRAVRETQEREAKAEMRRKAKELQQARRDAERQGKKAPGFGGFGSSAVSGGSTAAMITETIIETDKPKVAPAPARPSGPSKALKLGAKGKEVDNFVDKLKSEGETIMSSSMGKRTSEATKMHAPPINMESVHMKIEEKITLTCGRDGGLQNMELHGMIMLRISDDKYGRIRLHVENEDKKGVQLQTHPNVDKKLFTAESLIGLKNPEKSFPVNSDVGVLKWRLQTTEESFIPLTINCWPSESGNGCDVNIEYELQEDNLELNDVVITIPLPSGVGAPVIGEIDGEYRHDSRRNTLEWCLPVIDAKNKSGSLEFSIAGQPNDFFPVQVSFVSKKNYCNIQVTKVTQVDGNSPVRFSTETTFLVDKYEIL

[4] = molecular target: T2, ARCN1-MHD-Myc (ARCN1 MHD domain, 271-511 aa) (human); assay: as above; remark: listed apart in the source
[5] = molecular target: T3, ARCN1-Myc (archain 1, δ subunit of coat protein complex I) (human); assay: as above; remark: listed apart in the source

Molecule: STUB1-HA (from UniProt Q9UNE7 1-303)
- binding [1]: binds
- binding [2]: binds
- binding [3]: binds

Molecule: MAVS-Flag (from UniProt Q7Z434 1-540)
- binding [3]: no binding

B1: IKKε-Flag (protein, UniProt Q14164 1-716)
chain: MQSTANYLWHTDDLLGQGATASVYKARNKKSGELVAVKVFNTTSYLRPREVQVREFEVLRKLNHQNIVKLFAVEETGGSRQKVLVMEYCSSGSLLSVLESPENAFGLPEDEFLVVLRCVVAGMNHLRENGIVHRDIKPGNIMRLVGEEGQSIYKLTDFGAARELDDDEKFVSVYGTEEYLHPDMYERAVLRKPQQKAFGVTVDLWSIGVTLYHAATGSLPFIPFGGPRRNKEIMYRITTEKPAGAIAGAQRRENGPLEWSYTLPITCQLSLGLQSQLVPILANILEVEQAKCWGFDQFFAETSDILQRVVVHVFSLSQAVLHHIYIHAHNTIAIFQEAVHKQTSVAPRHQEYLFEGHLCVLEPSVSAQHIAHTTASSPLTLFSTAIPKGLAFRDPALDVPKFVPKVDLQADYNTAKGVLGAGYQALRLARALLDGQELMFRGLHWVMEVLQATCRRTLEVARTSLLYLSSSLGTERFSSVAGTPEIQELKAAAELRSRLRTLAEVLSRCSQNITETQESLSSLNRELVKSRDQVHEDRSIQQIQCCLDKMNFIYKQFKKSRMRPGLGYNEEQIHKLDKVNFSHLAKRLLQVFQEECVQKYQASLVTHGKRMRVVHETRNHLRLVGCSVAACNTEAQGVQESLSKLLEELSHQLLQDRAKGAQASPPPIAPYPSPTRKDLLLHMQELCEGMKLLASDLLDNNRIIERLNRVPAPPDV
- binding [4]: binds
- binding [5]: binds

B2: endogenous IKKε of HEK293T cells (protein, UniProt Q14164 1-716)
chain: MQSTANYLWHTDDLLGQGATASVYKARNKKSGELVAVKVFNTTSYLRPREVQVREFEVLRKLNHQNIVKLFAVEETGGSRQKVLVMEYCSSGSLLSVLESPENAFGLPEDEFLVVLRCVVAGMNHLRENGIVHRDIKPGNIMRLVGEEGQSIYKLTDFGAARELDDDEKFVSVYGTEEYLHPDMYERAVLRKPQQKAFGVTVDLWSIGVTLYHAATGSLPFIPFGGPRRNKEIMYRITTEKPAGAIAGAQRRENGPLEWSYTLPITCQLSLGLQSQLVPILANILEVEQAKCWGFDQFFAETSDILQRVVVHVFSLSQAVLHHIYIHAHNTIAIFQEAVHKQTSVAPRHQEYLFEGHLCVLEPSVSAQHIAHTTASSPLTLFSTAIPKGLAFRDPALDVPKFVPKVDLQADYNTAKGVLGAGYQALRLARALLDGQELMFRGLHWVMEVLQATCRRTLEVARTSLLYLSSSLGTERFSSVAGTPEIQELKAAAELRSRLRTLAEVLSRCSQNITETQESLSSLNRELVKSRDQVHEDRSIQQIQCCLDKMNFIYKQFKKSRMRPGLGYNEEQIHKLDKVNFSHLAKRLLQVFQEECVQKYQASLVTHGKRMRVVHETRNHLRLVGCSVAACNTEAQGVQESLSKLLEELSHQLLQDRAKGAQASPPPIAPYPSPTRKDLLLHMQELCEGMKLLASDLLDNNRIIERLNRVPAPPDV
- binding [1]: binds

B3: IKKε-N-Flag (IKKε N-terminal kinase domain, 1-390 aa) (domain or fragment, UniProt Q14164 1-390)
chain: MQSTANYLWHTDDLLGQGATASVYKARNKKSGELVAVKVFNTTSYLRPREVQVREFEVLRKLNHQNIVKLFAVEETGGSRQKVLVMEYCSSGSLLSVLESPENAFGLPEDEFLVVLRCVVAGMNHLRENGIVHRDIKPGNIMRLVGEEGQSIYKLTDFGAARELDDDEKFVSVYGTEEYLHPDMYERAVLRKPQQKAFGVTVDLWSIGVTLYHAATGSLPFIPFGGPRRNKEIMYRITTEKPAGAIAGAQRRENGPLEWSYTLPITCQLSLGLQSQLVPILANILEVEQAKCWGFDQFFAETSDILQRVVVHVFSLSQAVLHHIYIHAHNTIAIFQEAVHKQTSVAPRHQEYLFEGHLCVLEPSVSAQHIAHTTASSPLTLFSTAIPKGL
- binding [5]: binds

B4: RIG-I-Flag (protein, UniProt O95786 1-925)
chain: MTTEQRRSLQAFQDYIRKTLDPTYILSYMAPWFREEEVQYIQAEKNNKGPMEAATLFLKFLLELQEEGWFRGFLDALDHAGYSGLYEAIESWDFKKIEKLEEYRLLLKRLQPEFKTRIIPTDIISDLSECLINQECEEILQICSTKGMMAGAEKLVECLLRSDKENWPKTLKLALEKERNKFSELWIVEKGIKDVETEDLEDKMETSDIQIFYQEDPECQNLSENSCPPSEVSDTNLYSPFKPRNYQLELALPAMKGKNTIICAPTGCGKTFVSLLICEHHLKKFPQGQKGKVVFFANQIPVYEQQKSVFSKYFERHGYRVTGISGATAENVPVEQIVENNDIIILTPQILVNNLKKGTIPSLSIFTLMIFDECHNTSKQHPYNMIMFNYLDQKLGGSSGPLPQVIGLTASVGVGDAKNTDEALDYICKLCASLDASVIATVKHNLEELEQVVYKPQKFFRKVESRISDKFKYIIAQLMRDTESLAKRICKDLENLSQIQNREFGTQKYEQWIVTVQKACMVFQMPDKDEESRICKALFLYTSHLRKYNDALIISEHARMKDALDYLKDFFSNVRAAGFDEIEQDLTQRFEEKLQELESVSRDPSNENPKLEDLCFILQEEYHLNPETITILFVKTRALVDALKNWIEGNPKLSFLKPGILTGRGKTNQNTGMTLPAQKCILDAFKASGDHNILIATSVADEGIDIAQCNLVILYEYVGNVIKMIQTRGRGRARGSKCFLLTSNAGVIEKEQINMYKEKMMNDSILRLQTWDEAVFREKILHIQTHEKFIRDSQEKPKPVPDKENKKLLCRKCKALACYTADVRVIEECHYTVLGDAFKECFVSRPHPKPKQFSSFEKRAKIFCARQNCSHDWGIHVKYKTFEIPVIKIESFVVEDIATGVQTLYSKWKDFHFEKIPFDPAEMSK
- binding [5]: no binding

B5: TBK1-Flag (protein, UniProt Q9UHD2 1-729)
chain: MQSTSNHLWLLSDILGQGATANVFRGRHKKTGDLFAIKVFNNISFLRPVDVQMREFEVLKKLNHKNIVKLFAIEEETTTRHKVLIMEFCPCGSLYTVLEEPSNAYGLPESEFLIVLRDVVGGMNHLRENGIVHRDIKPGNIMRVIGEDGQSVYKLTDFGAARELEDDEQFVSLYGTEEYLHPDMYERAVLRKDHQKKYGATVDLWSIGVTFYHAATGSLPFRPFEGPRRNKEVMYKIITGKPSGAISGVQKAENGPIDWSGDMPVSCSLSRGLQVLLTPVLANILEADQEKCWGFDQFFAETSDILHRMVIHVFSLQQMTAHKIYIHSYNTATIFHELVYKQTKIISSNQELIYEGRRLVLEPGRLAQHFPKTTEENPIFVVSREPLNTIGLIYEKISLPKVHPRYDLDGDASMAKAITGVVCYACRIASTLLLYQELMRKGIRWLIELIKDDYNETVHKKTEVVITLDFCIRNIEKTVKVYEKLMKINLEAAELGEISDIHTKLLRLSSSQGTIETSLQDIDSRLSPGGSLADAWAHQEGTHPKDRNVEKLQVLLNCMTEIYYQFKKDKAERRLAYNEEQIHKFDKQKLYYHATKAMTHFTDECVKKYEAFLNKSEEWIRKMLHLRKQLLSLTNQCFDIEEEVSKYQEYTNELQETLPQKMFTASSGIKHTMTPIYPSSNTLVEMTLGMKKLKEEMEGVVKELAENNHILERFGSLTMDGGLRNVDCL
- binding [5]: no binding

B6: IRF3-Flag (protein, UniProt Q14653 1-427)
chain: MGTPKPRILPWLVSQLDLGQLEGVAWVNKSRTRFRIPWKHGLRQDAQQEDFGIFQAWAEATGAYVPGRDKPDLPTWKRNFRSALNRKEGLRLAEDRSKDPHDPHKIYEFVNSGVGDFSQPDTSPDTNGGGSTSDTQEDILDELLGNMVLAPLPDPGPPSLAVAPEPCPQPLRSPSLDNPTPFPNLGPSENPLKRLLVPGEEWEFEVTAFYRGRQVFQQTISCPEGLRLVGSEVGDRTLPGWPVTLPDPGMSLTDRGVMSYVRHVLSCLGGGLALWRAGQWLWAQRLGHCHTYWAVSEELLPNSGHGPDGEVPKDKEGGVFDLGPFIVDLITFTEGSGRSPRYALWFCVGESWPQDQPWTKRLVMVKVVPTCLRALVEMARVGGASSLENTVDLHISNSHPLSLTSDQYKAYLQDLVEGMDFQGPGES
- binding [5]: no binding
